In test [1] the test system is HSkMC (human skeletal muscle cells). Description: cytotoxicity call (relative viability < 0.9). The conditions noted are these: 10 µM.
Test [2] concerns HepG2. Description: cytotoxicity call (relative viability < 0.9). To be noted: 10 µM.
Test [3] relates to S. aureus RN4220. Description: growth inhibition call (relative growth <= 0.2). The conditions noted are these: 50 µM.

Drawing on the antibiotic and cytotoxicity screens of Wong et al. (2023), this text covers cytotoxicity call and growth inhibition call for 23 molecules.

Some of the results follow.

With `O=C(CCCCCNC(=O)OCCCCO[C@@H]1C[C@H](c2ccccc2)C=C(C(=O)N2CCOCC2)O1)NO`, the cytotoxicity call in test [1] and in test [2] was “inactive” each time. For the same molecule, the growth inhibition call in test [3] was “inactive”.

Regarding `Cc1noc(C)c1NC(=O)Nc1ccc2c(c1)C(=O)N([C@@H](C)CO)C[C@@H](C)[C@H](CN(C)Cc1ccccc1)OCCCC[C@H](C)O2`, the cytotoxicity call in test [1] and in test [2] was “inactive” throughout. For the same molecule, the growth inhibition call in test [3] is “inactive”.

`C[C@@H]1CN([C@H](C)CO)C(=O)c2cc(NC(=O)C3CCCCC3)ccc2O[C@@H](C)CCCCO[C@@H]1CN(C)S(=O)(=O)c1cccs1`: the cytotoxicity call in test [1] and in test [2] was “inactive” throughout. Moreover, the growth inhibition call in test [3] is “inactive”.

For the molecule `C[C@H](CO)N1C[C@H](C)[C@H](CN(C)S(C)(=O)=O)Oc2ccc(NC(=O)Cc3ccccc3)cc2CC1=O`, the cytotoxicity call in test [1] and in test [2] was “inactive” throughout. Also, the growth inhibition call in test [3] was “inactive”.

Turning to `N=c1sccn1CC(=O)O`, the cytotoxicity call in test [1] and in test [2] was “inactive” throughout. For the same molecule, in test [3], the growth inhibition call was “inactive”.

In the case of `Cc1noc(C)c1S(=O)(=O)Nc1ccc2c(c1)C(=O)N([C@H](C)CO)C[C@H](C)[C@H](CN(C)S(C)(=O)=O)OCCCC[C@H](C)O2`, the cytotoxicity call in test [1] and in test [2] was “inactive” in each case. In addition, the growth inhibition call in test [3] is “inactive”.

On to `COCC(=O)N1[C@H](C(=O)NCc2ccccc2)[C@@H](CO)[C@@H]2Cn3c(cccc3=O)[C@@H]21`, for which the cytotoxicity call in test [1] and in test [2] was “inactive” each time. The growth inhibition call in test [3] was “inactive”.

Take `Cc1noc(C)c1NC(=O)N(C)C[C@@H]1OCCCC[C@@H](C)Oc2ccc(NS(=O)(=O)c3ccccc3)cc2C(=O)N([C@H](C)CO)C[C@@H]1C`: the cytotoxicity call in test [1] and in test [2] was “inactive” throughout. For the same molecule, in test [3], the growth inhibition call was “inactive”.

For `COc1ccc(S(=O)(=O)N(C)C[C@@H]2Oc3cc(C#CC4CC4)ccc3S(=O)(=O)N([C@@H](C)CO)C[C@H]2C)cc1`, the cytotoxicity call in test [1] and in test [2] was “inactive” throughout. Also, the growth inhibition call in test [3] was “inactive”.

Consider `Cc1noc(C)c1S(=O)(=O)Nc1cccc2c1O[C@@H](CN(C)C(=O)NC1CCCCC1)[C@@H](C)CN([C@@H](C)CO)C2=O`, for which the cytotoxicity call in test [1] and in test [2] was “inactive” each time. In addition, the growth inhibition call in test [3] is “inactive”.

Consider `COc1ccc(COC[C@]23N=C4SCc5ccccc5C(=O)N4[C@H](c4ccccc4O2)[C@H]3CO[Si](C)(C)C(C)(C)C)cc1`, for which the cytotoxicity call in test [1] and in test [2] was “inactive” each time. Further, the growth inhibition call in test [3] was “inactive”.

Take `COc1ccc([C@H]([C@H](Cc2ccccc2)OC(C)=O)N(C[C@H](/C=C/c2ccccc2)NC(=O)C(Cl)(Cl)Cl)[C@@H](Cc2ccccc2)C(OC)OC)cc1`: the cytotoxicity call in test [1] and in test [2] was “inactive” each time. Further, the growth inhibition call in test [3] was “inactive”.

As for `Cc1noc(C)c1NC(=O)Nc1ccc2c(c1)C(=O)N([C@H](C)CO)C[C@H](C)[C@@H](CN(C)C(=O)Nc1ccc(F)cc1)OCCCC[C@H](C)O2`, the cytotoxicity call in test [1] and in test [2] was “inactive” each time. Also, the growth inhibition call in test [3] was “inactive”.

On to `COc1ccc(CN(C)C[C@@H]2OCCCC[C@@H](C)Oc3ccc(NC(=O)Cc4ccccc4)cc3C(=O)N([C@@H](C)CO)C[C@@H]2C)cc1`, for which the cytotoxicity call in test [1] and in test [2] was “inactive” in each case. Besides, the growth inhibition call in test [3] was “inactive”.

Regarding `COc1ccc(S(=O)(=O)Nc2ccc3c(c2)CC(=O)N([C@H](C)CO)C[C@H](C)[C@@H](CN(C)Cc2ccc(C(=O)O)cc2)O3)cc1`, the cytotoxicity call in test [1] and in test [2] was “inactive” in each case. For the same molecule, the growth inhibition call in test [3] is “inactive”.

For `CS(=O)(=O)N1[C@@H]2c3ccc(-c4ccccc4)c(=O)n3C[C@H]1[C@H](CO)[C@H]2C(=O)NCC1CC1`, the cytotoxicity call in test [1] and in test [2] was “inactive” throughout. For the same molecule, the growth inhibition call in test [3] was “inactive”.

On to `C=CC1=C(C)c2cc3[nH]c(cc4nc(cc5[nH]c(cc1n2)c(C)c5CCC(=O)O)C(CCC(=O)O)=C4C)c(C)c3C=C`, for which the cytotoxicity call in test [1] is “inactive”. In test [2], the cytotoxicity call is “active”. Also, the growth inhibition call in test [3] was “inactive”.

As for `C[C@H]1CN([C@@H](C)CO)C(=O)Cc2cc(NS(=O)(=O)c3ccc(Cl)cc3)ccc2O[C@@H]1CN(C)C(=O)Nc1cccc2ccccc12`, the cytotoxicity call in test [1] and in test [2] was “inactive” each time. Moreover, the growth inhibition call in test [3] was “inactive”.

As to `COc1ccc(S(=O)(=O)Nc2ccc3c(c2)CC(=O)N([C@H](C)CO)C[C@H](C)[C@@H](CN(C)S(=O)(=O)c2ccc(C)cc2)O3)cc1`, the cytotoxicity call in test [1] and in test [2] was “inactive” throughout. The growth inhibition call in test [3] was “inactive”.

As to `C[C@H]1CCCCO[C@H](CN(C)Cc2ccc(C(F)(F)F)cc2)[C@@H](C)CN([C@@H](C)CO)C(=O)c2cc(NS(=O)(=O)c3cccs3)ccc2O1`, the cytotoxicity call in test [1] and in test [2] was “inactive” in each case. For the same molecule, the growth inhibition call in test [3] was “inactive”.

Take `C[C@H]1CN([C@@H](C)CO)C(=O)c2cc(NC(=O)Nc3ccc(C(F)(F)F)cc3)ccc2O[C@H]1CN(C)C(=O)Nc1ccccc1`: the cytotoxicity call in test [1] and in test [2] was “inactive” in each case. In addition, in test [3], the growth inhibition call is “inactive”.

As to `C[C@H](CO)N1C[C@H](C)[C@@H](CN(C)S(=O)(=O)c2ccc(Cl)cc2)Oc2ccc(NC(=O)Cn3cnnn3)cc2CC1=O`, the cytotoxicity call in test [1] and in test [2] was “inactive” each time. Also, the growth inhibition call in test [3] was “inactive”.

On to `CC(C)NC(=O)N(C)C[C@@H]1Oc2ccc(NC(=O)Cn3cnnn3)cc2C(=O)N([C@H](C)CO)C[C@@H]1C`, for which the cytotoxicity call in test [1] and in test [2] was “inactive” each time. Further, in test [3], the growth inhibition call was “inactive”.
